The whole screen tested about 48,000 compounds, of which about 120 (0.25%) were called active. Inconclusive results (about 4%) are left out. Calls follow the shape of the dose curve; as a rule, active = well fitted activation curve with a large enough effect; inconclusive = small, poorly fitted or top-dose-only effect, or another doubt; inactive = no such curve, though single readings can be large or run the other way. The list shows a part of the results, in another mix than the full data. Where no call is shown, the source filed none.
Potency is read from the fitted curve at half-maximal effect.

A short description of the experiment: Primary qHTS for Identification of Small Molecule Activators of Huntingtin-Antisense Promoter Activity. Also: nearly all actives have a fitted effect of over 55% in size. Conditions: HEK293 HTT-AS promoter firefly luciferase reporter, 24 h; activity change, positive = activation: at 57.5 µM (top of the series), percent change from vehicle, -100% = no light. The method in brief:
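HEK293 luciferase promoter-reporter cells (2,500/well) plated 24 h, then compounds added at up to 57.5 uM final for 24 h at 37 °C. Firefly luminescence by Dual-Glo, normalized to vehicle (0%) and zero RLU (-100%).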
For orientation: Quantitative high-throughput screening tests each substance at several concentrations.
In the case of `CCOc1ccccc1CNCCCSc1nnnn1C`, the “activity change, positive = activation” value was inactive: -4.74%.

Turning to `Cc1nc2scc(C)n2c(=O)c1S(=O)(=O)Nc1cccc(O)c1`, the activity change, positive = activation was -11.6%.

On to `COc1ccc(-c2cc(C(=O)Nc3cc(C)ccc3O)no2)cc1OC`, for which the activity change, positive = activation was 10%.

For the molecule `COc1ccc(NCc2ccccc2-c2nnc(-c3ccccc3)o2)cc1Cl`, the activity change, positive = activation is 32.3%.

Take `Cc1cc(NC(c2nnc(-c3ccccc3)o2)c2ccccc2F)ccc1Br` (centres undefined): the activity change, positive = activation was -19.6%.

For `O=C(NCC(c1ccc2c(c1)OCO2)N1CCOCC1)c1ccccc1` (centres undefined), the “activity change, positive = activation” value was inactive: -5.21%.

`COc1ccc(OC)c(-c2cc(C(=O)Nc3ccc(C)c(C)c3)no2)c1`: the activity change, positive = activation came to 8.61%.

Take `COc1cc(OC)cc(C(=O)Nc2cc3c(cc2N2CCCCC2)n(C)c(=O)n3C)c1`: the activity change, positive = activation came to 3.02%.

As to `COc1ccc(CNC(=O)c2cnc3sc(N4CCC(C)CC4)nn3c2=O)c(OC)c1`, the activity change, positive = activation is 10.1%.

`COC(=O)COc1ccc(C2C(C(=O)OC)=C(C)NC3=C2C(=O)c2ccccc23)cc1OC` (centres undefined): the activity change, positive = activation was -12.5%.

Take `Cc1ccc(-c2nc3ccccc3[nH]2)cc1NC(=O)COc1ccccc1[N+](=O)[O-]`: the “activity change, positive = activation” value is inactive: -36.3%.

Take `Cc1ccc(CNC(=O)Cn2c(SCC(=O)Nc3ccc(F)cc3)nc3ccccc32)cc1`: the “activity change, positive = activation” value was inactive: -38.1%.

For the molecule `CCOc1ccc(C2C(=O)N(C3CCCCCC3)CC(=O)N2Cc2ccccc2)cc1OC` (centres undefined), the activity change, positive = activation is -17.6%.

On to `CC(=O)c1cccc(NC(=O)Nc2sc3nc4n(c(=O)c3c2C)CCC(C)CC4)c1` (centres undefined), for which the activity change, positive = activation is -9.48%.

Take `COc1ccc2c(C)c(CC(=O)NCCc3ccc(Cl)cc3)c(=O)oc2c1C`: the activity change, positive = activation came out at 2.81%.

Regarding `O=C(Nc1cc(-c2ccccc2)sc1C(=O)O)c1cccc(F)c1`, the “activity change, positive = activation” value is inactive: -1.58%.

Consider `CCCOC(=O)c1cccc(Nc2nc(CCC)cc(=O)[nH]2)c1`, for which the activity change, positive = activation was -46.3%.

For `CCOC(=O)c1cccc(NC(=O)c2ccc3c(c2)nnn3CC)c1`, the “activity change, positive = activation” value is inactive: -2.58%.

On to `Cc1ccccc1C(=O)Nc1cccc(OCc2cc(=O)n3c4c(sc3n2)CCCC4)c1`, for which the “activity change, positive = activation” value was inactive: -7%.

For the molecule `O=C(CCCCn1c(=O)[nH]c2ccsc2c1=O)N1CCN(c2cccc(C(F)(F)F)c2)CC1`, the “activity change, positive = activation” value is inactive: -39.9%.

With `CCN1CCN(Cc2c(O)ccc3oc(C)c(C(=O)Nc4ccc(OC)cc4)c23)CC1`, the activity change, positive = activation came to 12.1%.

With `COc1cccc(-c2cc(C(=O)NCc3ccccc3)no2)c1`, the activity change, positive = activation turned out to be 23.4%.

As to `Cc1ccccc1C(=O)N1CCC(N2CCN(Cc3ccc(F)cc3)C(=O)C2=O)CC1`, the activity change, positive = activation is 2.16%.

Take `CCOc1ccc(NC(=O)CSc2nc(-c3cccs3)cc(C(F)(F)F)c2C#N)cc1`: the “activity change, positive = activation” value is inactive: -4.64%.

`CCCCCNC(=O)c1cc2c(=O)n3ccccc3nc2n1C`: the Potency is active: 2000 nM.

In the case of `COc1cccc(C(=O)NCC2OCCc3ccccc32)c1` (centres undefined), the activity change, positive = activation is 20.2%.

Regarding `CCCOc1ccc(C2C(=O)N(C3CCCCCC3)CC(=O)N2Cc2ccccc2OC)cc1OC` (centres undefined), the activity change, positive = activation is -29.4%.

Regarding `Cc1ccc(Nc2nc3nonc3nc2Nc2cccc(C(F)(F)F)c2)cc1Cl`, the “activity change, positive = activation” value is inactive: -91%.

Take `CCOC(=O)[C@@H](N)CCC(=O)N[C@@H](CSCc1ccccc1)C(=O)N[C@@H](C(=O)OCC)c1ccccc1`: the “activity change, positive = activation” value was inactive: -17.7%.

Regarding `Cc1cccc(-n2c(C)cc(C(=O)C(=O)Nc3ccccc3F)c2C)c1C`, the “activity change, positive = activation” value was inactive: -20.3%.

As for `Cc1ccc(S(=O)(=O)N2CCC(N3CCN(Cc4ccccc4)C(=O)C3=O)CC2)cc1C`, the activity change, positive = activation was -11.9%.

Turning to `O=C(NCc1ccccc1)C1CCN(S(=O)(=O)Cc2ccccc2)CC1`, the activity change, positive = activation is -4.23%.

As to `COC(=O)c1ccc(N2C(=O)Cc3cc(OC)c(OC)cc3C2c2ccc(F)cc2)cc1` (centres undefined), the activity change, positive = activation was -21.5%.

For `O=C1C(c2ccc(F)cc2)N(CCc2ccc(Cl)cc2)C(=O)CN1C1CCCCC1` (centres undefined), the activity change, positive = activation is -21.3%.

Consider `CCc1ccc(S(=O)(=O)Nc2cccc(-c3ccc(N4CCCCC4)nn3)c2)s1`, for which the activity change, positive = activation is 38.1%.

As to `COc1cccc(-c2cc(C(=O)NCCc3ccc(OC)c(OC)c3)no2)c1`, the activity change, positive = activation was -3.22%.

On to `O=C(COc1ccc(F)cc1)OCc1cc(=O)n2nc(C3CC3)sc2n1`, for which the “activity change, positive = activation” value is inactive: -8.4%.

On to `CCCCN(C)CC(O)Cn1cc(/C=C/C(=O)c2ccc(OCC)cc2)c2ccccc21` (centres undefined), for which the “activity change, positive = activation” value is inactive: -20%.

`CC#CCn1c(N2CCC[C@@H](N)C2)nc2c1c(=O)n(Cc1nc(C)c3ccccc3n1)c(=O)n2C`: the “activity change, positive = activation” value was inactive: -3.17%.

Regarding `COC(=O)c1cc2oc3ccccc3c2n1CC(=O)Nc1ccc(C)cc1Cl`, the activity change, positive = activation stood at 15.1%.

`Cc1ccc(C)c(N2CCN(CCCNC(=O)c3ccc4nc(C(C)C)oc4c3)CC2)c1`: the “activity change, positive = activation” value is inactive: -29.9%.

Regarding `CCOc1ccc(CCNC(c2nnc(-c3ccccc3)o2)c2ccccc2Cl)cc1OCC` (centres undefined), the activity change, positive = activation is -26.8%.

For `CC(=O)c1ccc(NC(=O)c2nn(C)c3c2CS(=O)(=O)c2ccccc2-3)cc1`, the “activity change, positive = activation” value was inactive: -1.75%.

With `Cc1ccc(-n2ncc(C(=O)N(C)Cc3ccccc3)c2-n2cccc2)cc1`, the activity change, positive = activation is -27.5%.

With `CC(CNC(=O)c1cc2ccccn2n1)c1ccccc1` (centres undefined), the activity change, positive = activation stood at 62.4%.

`COc1ccc(-c2nc(SCCOc3cc(C)ccc3C(C)C)n3[nH]c(=O)cc3n2)cc1`: the activity change, positive = activation was -4.43%.

On to `Cc1cc(C)cc(NC(=O)c2cc3c(=O)n(Cc4ccco4)ccc3nc2C)c1`, for which the activity change, positive = activation is -14.2%.

As for `O=S(=O)(c1ccc(Cl)cc1)c1nnn2c1nc(NCc1ccccc1)c1sccc12`, the “activity change, positive = activation” value is inactive: -8.9%.

Regarding `Cc1cc(NC(=O)c2ccco2)cc(-c2nc3cc(Cl)ccc3o2)c1O`, the “activity change, positive = activation” value is inactive: -16.7%.

These data come from PubChem BioAssay AID1508624 (National Center for Advancing Translational Sciences (NCATS), 2021).
